Source: the supplement of paper PMC12015411

Tested on: Escherichia coli BW25113
Assay: growth relative to no-drug wells (fraction of no-drug control); higher = more growth, less inhibition
Protocol: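 8 x 8 checkerboard in cation-adjusted Mueller-Hinton broth at 37 °C; OD600 at the end of exponential growth as a fraction of no-drug wells, two biological replicates.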

CC[C@H]1OC(=O)[C@H](C)[C@@H](O[C@H]2C[C@@](C)(OC)[C@@H](O)[C@H](C)O2)[C@H](C)[C@@H](O[C@@H]2O[C@H](C)C[C@H](N(C)C)[C@H]2O)[C@](C)(O)C[C@@H](C)C(=O)[C@H](C)[C@@H](O)[C@]1(C)O [Erythromycin] + Oc1ccc([N+](=O)[O-])c2cccnc12 [nitroxoline]
growth
Conditions	nitroxoline concentration 0.136 µg/ml	nitroxoline concentration 0.255 µg/ml	nitroxoline concentration 0.374 µg/ml	nitroxoline concentration 0.493 µg/ml	nitroxoline concentration 0.612 µg/ml	nitroxoline concentration 0.731 µg/ml	nitroxoline concentration 0.85 µg/ml
1.1176 µg/ml	0.685	0.6253	0.561	0.56	0.431	0.263	0.24
2.098 µg/ml	0.642	0.629	0.504	0.386	0.491	0.247	0.245
3.0784 µg/ml	0.584	0.547	0.432	0.398	0.32	0.2708	0.234
4.0588 µg/ml	0.624	0.483	0.435	0.349	0.235	0.253	0.227
5.0392 µg/ml	0.59	0.526	0.395	0.276	0.248	0.216	0.209
6.0196 µg/ml	0.622	0.524	0.384	0.246	0.203	0.161	0.184
7 µg/ml	0.615	0.48	0.314	0.253	0.227	0.194	0.215

CO[C@H]1/C=C/O[C@@]2(C)Oc3c(C)c(O)c4c(O)c(c(/C=N/N5CCN(C)CC5)c(O)c4c3C2=O)NC(=O)/C(C)=C\C=C\[C@H](C)[C@H](O)[C@@H](C)[C@@H](O)[C@@H](C)[C@H](OC(C)=O)[C@@H]1C [Rifampicin] + Oc1ccc([N+](=O)[O-])c2cccnc12 [nitroxoline]
growth
Conditions	nitroxoline concentration 0.136 µg/ml	nitroxoline concentration 0.255 µg/ml	nitroxoline concentration 0.374 µg/ml	nitroxoline concentration 0.493 µg/ml	nitroxoline concentration 0.612 µg/ml	nitroxoline concentration 0.731 µg/ml	nitroxoline concentration 0.75 µg/ml
0.7185 µg/ml	0.878	0.923	0.926	0.846	0.802	0.776	0.7232
1.3487 µg/ml	0.813	0.787	0.761	0.683	0.714	0.6329	0.629
1.979 µg/ml	0.732	0.73	0.514	0.661	0.533	0.42	0.348
2.6092 µg/ml	0.704	0.627	0.449	0.272	0.0167	0.0579	0.0821
3.2395 µg/ml	0.615	0.5792	0.281	0.0109	0.0105	0.00127	0.0178
3.8697 µg/ml	0.611	0.483	0.0482	0.0132	0.0115	0.0122	0.0146
4.5 µg/ml	0.638	0.343	0.00553	0.001842	0.00138	0	0.00161

CO[C@@]1(NC(=O)C(C(=O)O)c2ccsc2)C(=O)N2[C@@H](C(=O)O)C(C)(C)S[C@@H]21 (some centres undefined) [Temocillin]
nitroxoline concentration 0 µg/ml
Conditions	growth
0.4088 µg/ml	0.947
0.7025 µg/ml	0.988
0.8175 µg/ml	0.9974
1.405 µg/ml	0.562
1.635 µg/ml	0.518
2.81 µg/ml	0.484
3.27 µg/ml	0.504

CNC(C)C1CCC(N)C(OC2C(N)CC(N)C(OC3OCC(C)(O)C(NC)C3O)C2O)O1 (centres undefined) [Gentamicin]
nitroxoline concentration 0 µg/ml
Conditions	growth
0.035 µg/ml	0.957
0.06 µg/ml	0.899
0.07 µg/ml	0.895
0.12 µg/ml	0.562
0.14 µg/ml	0.417
0.24 µg/ml	0.0487
0.28 µg/ml	0.0373

CO[C@@]1(NC(=O)C(C(=O)O)c2ccsc2)C(=O)N2[C@@H](C(=O)O)C(C)(C)S[C@@H]21 (some centres undefined) [Temocillin] + Oc1ccc([N+](=O)[O-])c2cccnc12 [nitroxoline]
growth
Conditions	nitroxoline concentration 0.136 µg/ml	nitroxoline concentration 0.255 µg/ml	nitroxoline concentration 0.374 µg/ml	nitroxoline concentration 0.493 µg/ml	nitroxoline concentration 0.612 µg/ml	nitroxoline concentration 0.731 µg/ml	nitroxoline concentration 0.85 µg/ml
0.4088 µg/ml	1	1	0.946	0.751	0.642	0.566	0.497
0.7025 µg/ml	1	1	0.973	0.7834	0.655	0.589	0.494
0.8175 µg/ml	1	1	0.966	0.779	0.64	0.578	0.557
1.405 µg/ml	0.881	0.801	0.849	0.768	0.632	0.556	0.497
1.635 µg/ml	0.925	1	0.909	0.738	0.597	0.547	0.486
2.81 µg/ml	0.49	0.477	0.6	0.517	0.409	0.33	0.215
3.27 µg/ml	0.376	0.382	0.426	0.35	0.291	0.199	0.222

CN[C@H](CC(C)C)C(=O)N[C@H]1C(=O)N[C@@H](CC(N)=O)C(=O)N[C@H]2C(=O)N[C@H]3C(=O)N[C@H](C(=O)N[C@H](C(=O)O)c4cc(O)cc(O)c4-c4cc3ccc4O)[C@H](O)c3ccc(c(Cl)c3)Oc3cc2cc(c3O[C@@H]2O[C@H](CO)[C@@H](O)[C@H](O)[C@H]2O[C@H]2C[C@](C)(N)[C@H](O)[C@H](C)O2)Oc2ccc(cc2Cl)[C@H]1O [Vancomycin]
nitroxoline concentration 0 µg/ml
Conditions	growth
13.5714 µg/ml	0.982
25.4762 µg/ml	0.958
37.381 µg/ml	0.917
49.2857 µg/ml	0.787
61.1905 µg/ml	0.6327
73.0952 µg/ml	0.403
85 µg/ml	0.428

C[C@@H]1O[C@@H]1P(=O)(O)O [Fosfomycin]
nitroxoline concentration 0 µg/ml
Conditions	growth
0.0625 µg/ml	0.989
0.1075 µg/ml	0.897
0.125 µg/ml	0.82
0.215 µg/ml	0.596
0.25 µg/ml	0.0133
0.43 µg/ml	0.0838
0.5 µg/ml	0.0572

CCN1CCN(C(=O)N[C@@H](C(=O)N[C@@H]2C(=O)N3[C@@H]2SC(C)(C)[C@@H]3C(=O)O)c2ccccc2)C(=O)C1=O [Piperacillin]
nitroxoline concentration 0 µg/ml
Conditions	growth
1.1176 µg/ml	0.96
2.098 µg/ml	0.946
3.0784 µg/ml	0.766
4.0588 µg/ml	0.609
5.0392 µg/ml	0.311
6.0196 µg/ml	0.15
7 µg/ml	0.0323

CC[C@H]1OC(=O)[C@H](C)[C@@H](O[C@H]2C[C@@](C)(OC)[C@@H](O)[C@H](C)O2)[C@H](C)[C@@H](O[C@@H]2O[C@H](C)C[C@H](N(C)C)[C@H]2O)[C@](C)(O)C[C@@H](C)C(=O)[C@H](C)[C@@H](O)[C@]1(C)O [Erythromycin]
nitroxoline concentration 0 µg/ml
Conditions	growth
1.1176 µg/ml	0.958
2.098 µg/ml	0.891
3.0784 µg/ml	0.805
4.0588 µg/ml	0.731
5.0392 µg/ml	0.714
6.0196 µg/ml	0.711
7 µg/ml	0.646

Bacterial growth in Mueller-Hinton broth at 37 °C with the drug at the dose given, alone or with nitroxoline. Checkerboards on E. coli BW25113: OD600 at the end of exponential growth as a fraction of no-drug wells. Colistin series: OD595 at 10.75 h as a fraction of the colistin-free well. 1 = full growth, lower = more inhibition. No active / inactive call per well. Checkerboard doses stop near each drug's IC75, and their values pile up at 1, as if capped there. Colistin and gentamicin are mixtures; one drawing stands for each.
